Experimental data published in PubChem BioAssay AID588342 (National Center for Advancing Translational Sciences (NCATS), 2011).
“And” between values parts separate entries of the source, which are not always exact repeats. Equal values may be shown once. The whole screen tested about 360,000 compounds, of which about 25,000 (6.9%) were called active. Inconclusive results, whose numbers are uncertain, are shown with a selection of clear calls. Calls come from the whole dose curve; as a rule, active = well fitted inhibition curve with a large enough effect; inconclusive = small, poorly fitted or top-dose-only effect; inactive = flat fitted curve, though single readings scatter. Potencies beside an inconclusive call are fits to weak or partial responses and may not hold up.

Target: Luciferin 4-monooxygenase (Photinus pyralis) (UniProt P08659)
Sequence of UniProt P08659 (P08659 whole entry, looked up): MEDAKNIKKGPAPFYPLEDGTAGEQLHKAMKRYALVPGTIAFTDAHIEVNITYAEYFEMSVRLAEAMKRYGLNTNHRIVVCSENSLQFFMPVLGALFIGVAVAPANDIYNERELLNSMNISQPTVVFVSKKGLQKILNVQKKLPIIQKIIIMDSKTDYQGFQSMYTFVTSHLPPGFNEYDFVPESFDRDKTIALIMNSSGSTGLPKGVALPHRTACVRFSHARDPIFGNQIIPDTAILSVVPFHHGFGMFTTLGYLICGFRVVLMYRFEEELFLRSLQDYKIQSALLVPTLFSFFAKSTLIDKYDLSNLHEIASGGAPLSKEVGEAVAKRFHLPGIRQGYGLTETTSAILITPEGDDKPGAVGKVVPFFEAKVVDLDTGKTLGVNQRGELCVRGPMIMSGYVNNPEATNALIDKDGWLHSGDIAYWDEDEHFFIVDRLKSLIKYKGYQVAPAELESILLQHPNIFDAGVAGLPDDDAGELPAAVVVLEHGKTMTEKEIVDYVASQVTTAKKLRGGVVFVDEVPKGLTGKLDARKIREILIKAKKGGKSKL
Experiment: qHTS profiling assay for firefly luciferase inhibitor/activator using purifed enzyme and Km concentrations of substrates (counterscreen for miR-21 project); note: nearly all actives have a fitted effect of over 55% in size;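 for activity change, negative = inhibition: plate controls were vehicle for no effect and reference inhibitor for full effect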
Conditions: purified FLuc, luminescence inhibition; series mostly up to 57.5 µM; activity change, negative = inhibition: at the top concentration
Outline: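 Purified P. pyralis luciferase (10nM final) with 10uM D-luciferin and 10uM ATP (Km levels) in 50mM Tris acetate pH 7.5, 10mM Mg acetate, 0.01% Tween-20, 0.05% BSA; qHTS 6-point titration, ~60 µM downward; luminescence read.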
Potency is the fitted concentration of half-maximal effect; tags give direction and shape of the fitted curve.

Row | Compound | Potency | activity change, negative = inhibition
1 | N#C/C(=C/c1ccc(O)c([N+](=O)[O-])c1)C(=O)Nc1ccccc1 | active: 13.5 µM | –
2 | COc1cccc(C(=O)Nc2ncc3c(n2)CC(C)(C)CC3=O)c1 | inconclusive: 15.1 µM [inhibitor, partial curve, poor fit] | –
3 | CCc1ccc(CNC(=O)c2ccc3nc(C4CCCCC4)oc3c2)nc1 | inconclusive: 26.9 µM [inhibitor, partial curve, poor fit] | –
4 | O=C1/C(=C\c2ccc(C(F)(F)F)cc2)CSc2sccc21 | inconclusive: 37.9 µM [inhibitor, partial curve, poor fit] | –
5 | Cc1cc(N2CCOCC2)nc2ccc(NC(=S)NCCC(C)C)cc12 | – | inactive: -5.99%
6 | CCOC(=O)c1ccc(N=Cc2nc(-c3ccccc3)oc2OC(C)=O)cc1 | inconclusive: 15.1 µM [inhibitor, partial curve] | –
7 | COc1ccc(OC)c(N/C=C/C(=O)c2ccccc2)c1 | active: 0.0675 µM | –
8 | COc1ccccc1-c1nc(SCC(=O)Nc2ccc(C)c(C)c2)n[nH]1 | inconclusive: 37.9 µM [inhibitor, partial curve, poor fit] | –
9 | CSc1ccc(CCNC(=O)C2CCN(c3ncnc4c3nc3n4CCCCC3)CC2)cc1 | – | inactive: -15.2%
10 | CCCc1cc(N2CCN(c3ccc(OC)cc3)CC2)n2cnnc2n1 | – | inactive: 1.88%
11 | O=C(c1ccc(CNS(=O)(=O)c2ccc(Br)cc2)cc1)N1CCCCCC1 | – | inactive: -0.224%
12 | CCN(c1ccccc1)S(=O)(=O)c1cc([N+](=O)[O-])ccc1N | inconclusive: 33.8 µM [inhibitor, partial curve, poor fit] | –
13 | CCCCC(=O)Nc1nc(C)c(-c2csc(Nc3ccccc3OC)n2)s1 | inconclusive: 23.9 µM [inhibitor, single point] | –
14 | Cc1nc(-c2cccc(NC(=O)c3ccc(-n4nccc4C)cc3)c2)cs1 | active: 4.78 µM | –
15 | CCc1c(C)nc2ccc(Br)cc2c1Cl | inconclusive: 26.9 µM [inhibitor, single point] | –
16 | CC(=O)C(C)Oc1ccc2c3c(c(=O)oc2c1C)CCCC3 (configuration not stated) | inconclusive: 15.1 µM [inhibitor, partial curve, poor fit] | –
17 | Cc1nnc(Nc2ccccn2)c2ccccc12 | inconclusive: 37.9 µM [inhibitor, partial curve, poor fit] | –
18 | O=C(NC1CCCCC1)C(=S)NCCc1ccccc1 | inconclusive: 37.9 µM [inhibitor, partial curve, poor fit] | –
19 | CC(C)(C)c1ccc(C(=O)N2CCN(Cc3cc(=O)n4nc(-c5ccccc5F)sc4n3)CC2)cc1 | – | inactive: 5.58%
20 | COc1ccc(OCc2cc(C(=O)N3CCC(OC)CC3)no2)c2ccccc12 | active: 10.7 µM | –
21 | CCOc1ccc(CNC(=O)Cc2ccc(NC(=O)N3CCCCc4ccccc43)cc2)cc1OC | inconclusive: 30.1 µM [inhibitor, partial curve, poor fit] | –
22 | O=C(CSc1ccccn1)Nc1ccc2c(c1)C(=O)c1ccccc1C2=O | inconclusive: 1.69 µM [inhibitor, full curve, poor fit] | –
23 | COc1ccc(/C=C2\SC(=S)N(NC(=O)c3csc4c3CCCC4)C2=O)cc1 | – | inactive: -8.59%
24 | O=C(NC1CCCCC1)c1ccc2c(c1)OCO2 | inconclusive: 21.3 µM [inhibitor, single point] | –

Row | Compound | Potency | activity change, negative = inhibition
25 | CCN(C(=O)CSc1nc2ccccc2n1CC(=O)N1CCCC(C)C1)c1ccccc1 (configuration not stated) | – | inactive: -4.26%
26 | Cn1c(=O)c(=O)n(C)c2cc(S(=O)(=O)Nc3ccc(Cl)c(C(F)(F)F)c3)ccc21 | inconclusive: 12 µM [inhibitor, partial curve, poor fit] | –
27 | Fc1ccc(Nc2c(-c3ccco3)nc3ccccn23)cc1 | inconclusive: 37.9 µM [inhibitor, partial curve, poor fit] | –
28 | Cc1sc2ncnc(N=Nc3c(O)[nH]c4ccccc34)c2c1C | active: 0.849 µM | –
29 | CCC(C)c1ccc(NC(=S)NCc2ccccn2)cc1 (configuration not stated) | inconclusive: 37.9 µM [inhibitor, partial curve, poor fit] | –
30 | CCc1ccccc1Nc1cc(C(=O)NCCCN(C)C2CCCCC2)c2ccccc2n1 | – | inactive: -8.38%
31 | O=C(COc1ccccc1)Nc1nnc(SCc2cc(=O)c3ccccc3[nH]2)s1 | inconclusive: 26.9 µM [inhibitor, partial curve] | –
32 | O=C(c1nn2c(C(F)(F)F)cc(-c3cccs3)nc2c1Cl)N1CCCc2ccccc21 | inconclusive: 21.3 µM [inhibitor, partial curve, poor fit] | –
33 | COc1ccc(-n2nc(C(=O)NCC(=O)N3CCCC3)c3ccccc3c2=O)cc1 | active: 12 µM | –
34 | Oc1cc(NCc2cccnc2)ccc1-c1nc2ccccc2o1 | active: 7.57 µM | –
35 | O=C(Nc1cccc(NC(=O)c2ccc(-c3ccc(Br)cc3)o2)c1)c1ccccc1 | active: 2.69 µM | –
36 | Cc1ccn2c(Nc3ccccc3C)c(-c3cccnc3)nc2c1 | inconclusive: 16.9 µM [inhibitor, partial curve] and inconclusive: 19 µM [inhibitor, single point] | –
37 | COc1ccccc1/C=C/C(=O)NCCC1=CCCCC1 | active: 10.7 µM | –
38 | O=C(NC(=S)Nc1ccc(NC(=O)c2ccccc2)cc1)c1ccc(F)cc1 | – | inactive: 0.999%
39 | Cc1ccc2[nH]c3c(c2c1)CC/C(=C/c1ccccc1)C3=O | active: 4.78 µM | –
40 | Cc1ccc(N=C2C(=S)N(c3ccc(C)cc3)C(=N)N2/N=C/c2ccc(Cl)cc2)cc1 | inconclusive: 26.9 µM [inhibitor, single point] | –
41 | COc1ccc(NC(=O)c2cc(CC(C)C)on2)cc1OC | inconclusive: 23.9 µM [inhibitor, partial curve] | –
42 | Nc1ccc2oc(-c3cccc(Br)c3)nc2c1 | active: 2.69 µM | –
43 | COc1ccc(/C=N/NC(=O)c2cc(C)n(-c3ccccc3)c2C)cc1OC | active: 8.49 µM | –
44 | CN(C)c1nc(=NCc2ccco2)ss1 | inconclusive: 19 µM [inhibitor, partial curve] | –
45 | Cc1cccc(NC(=O)c2cc(-c3ccc(C)c(C)c3O)n[nH]2)c1 | inconclusive: 2.69 µM [inhibitor, full curve] | –
46 | O=C(c1ccccc1)c1cn[nH]c1-c1ccccc1O | – | inactive: -8.14%
47 | COc1ccccc1NC(=O)CC1S/C(=N/N=C2\CCCc3ccccc32)NC1=O (configuration not stated) | inconclusive: 13.5 µM [inhibitor, partial curve] | –
48 | COc1cc(Nc2nc3ccccc3nc2NS(=O)(=O)c2ccc([N+](=O)[O-])cc2)cc(OC)c1OC | – | inactive: -6.66%

Row | Compound | Potency | activity change, negative = inhibition
49 | O=C(CSc1ccc(F)cc1)Nc1ccc(Br)cc1 | active: 13.5 µM | –
50 | CCC(=O)Nc1cccc(NC(=S)NC(=O)c2ccccc2C)c1 | active: 15.1 µM | –
51 | COc1cc(/C=C2\N=C3CCCCCN3C2=O)ccc1O | active: 16.9 µM | –
52 | Cc1ccccc1C(=O)N/N=C/c1ccc(OCC(=O)N2CCCCC2)cc1 | inconclusive: 23.9 µM [inhibitor, partial curve, poor fit] | –
53 | COc1ccccc1NC(=O)c1ccc(Cl)c(S(=O)(=O)N2CCCCC2)c1 | inconclusive: 37.9 µM [inhibitor, partial curve, poor fit] | –
54 | O=C(NCc1ccc(F)cc1)c1ccc(N2CCc3ccccc32)c([N+](=O)[O-])c1 | – | inactive: 0.242%
55 | COc1cc(O)c2c(=O)c(-c3ccc(O[C@@H]4O[C@H](CO)[C@@H](O)[C@H](O)[C@H]4O)cc3)coc2c1 | active: 16.9 µM | –
56 | COc1cccc(-n2nnnc2SCC(=O)Nc2nc3c(s2)CCCC3)c1 | inconclusive: 37.9 µM [inhibitor, partial curve, poor fit] | –
57 | COc1ccc(NC(=O)C(NS(=O)(=O)c2cccc3nsnc23)c2ccccc2)cc1 (configuration not stated) | – | inactive: -3.38%
58 | CCCCOc1cccc(C(=O)Nc2ccc(NC(=O)c3cccs3)cc2)c1 | – | inactive: -1.74%
59 | O=C(NCc1ccccc1Cl)c1cccc(NC(=O)c2ccccc2)c1 | inconclusive: 19 µM [inhibitor, single point] | –
60 | COc1cnc(-c2ccccn2)nc1Sc1ccccc1 | inconclusive: 37.9 µM [inhibitor, partial curve, poor fit] | –
61 | O=C(Nc1ccc(S(=O)(=O)N2CCc3ccccc3C2)cc1)c1ccccc1 | – | inactive: 0.419%
62 | CCOC(=O)/C(C#N)=C/c1cc2ccc(C)cc2nc1Cl | inconclusive: 30.1 µM [inhibitor, partial curve, poor fit] | –
63 | Cc1ccc(NC(=O)c2ccco2)c([N+](=O)[O-])c1 | inconclusive: 19 µM [inhibitor, partial curve] | –
64 | Cc1ccc(C(=O)n2cnnc2N)cc1 | inconclusive: 30.1 µM [inhibitor, partial curve, poor fit] | –
65 | O=C(NC(=S)Nc1cccnc1Cl)c1ccc(F)cc1 | inconclusive: 21.3 µM [inhibitor, partial curve] | –
66 | CCCCSc1nnc2c(n1)OC(c1ccc(C)s1)Nc1ccccc1-2 (configuration not stated) | inconclusive: 37.9 µM [inhibitor, single point] | –
67 | CCC(CC)c1nn2cc(-c3ccccc3)nc2s1 | active: 0.269 µM | –
68 | CSc1cccc(NC(=O)/C=C/c2ccc(Cl)cc2)c1 | active: 3.38 µM | –
69 | COc1ccccc1NC(=O)c1c(N=Cc2cccc([N+](=O)[O-])c2)cnn1C | – | inactive: -3.32%
70 | Cc1ccc2sc(NC(=O)c3cccc(N4C(=O)CCC4=O)c3)nc2c1C | active: 1.9 µM | –
71 | CCn1ccnc1CN(C)C(=O)c1cc(COc2ccc(Cl)cc2OC)on1 | inconclusive: 37.9 µM [inhibitor, partial curve, poor fit] | –
72 | CCc1ccc(-c2nc(CN3CCC(C(=O)N4CCN(c5ccccc5)CC4)CC3)c(C)o2)cc1 | inconclusive: 37.9 µM [inhibitor, partial curve, poor fit] | –
